Data: PubChem BioAssay AID360 (National Center for Advancing Translational Sciences (NCATS), 2006)
In all, about 48,000 compounds went through this assay and about 550 (1.1%) were called active. Inconclusive results (about 4%) are left out. No stated cut-off is given here; in the data, active means potency below about 15 µM; inconclusive means mostly about 16 µM to 33 µM; inactive means weaker than that. The list shows a part of the results.

target: Lysosomal acid glucosylceramidase (Homo sapiens) (UniProt P04062); assay: Glucocerebrosidase; settings: purified enzyme, resorufin glucoside fluorescence (screen aimed at inhibitors), 20 min;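 further: the screen sought inhibitors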
UniProt P04062, sequence (P04062 whole entry, looked up): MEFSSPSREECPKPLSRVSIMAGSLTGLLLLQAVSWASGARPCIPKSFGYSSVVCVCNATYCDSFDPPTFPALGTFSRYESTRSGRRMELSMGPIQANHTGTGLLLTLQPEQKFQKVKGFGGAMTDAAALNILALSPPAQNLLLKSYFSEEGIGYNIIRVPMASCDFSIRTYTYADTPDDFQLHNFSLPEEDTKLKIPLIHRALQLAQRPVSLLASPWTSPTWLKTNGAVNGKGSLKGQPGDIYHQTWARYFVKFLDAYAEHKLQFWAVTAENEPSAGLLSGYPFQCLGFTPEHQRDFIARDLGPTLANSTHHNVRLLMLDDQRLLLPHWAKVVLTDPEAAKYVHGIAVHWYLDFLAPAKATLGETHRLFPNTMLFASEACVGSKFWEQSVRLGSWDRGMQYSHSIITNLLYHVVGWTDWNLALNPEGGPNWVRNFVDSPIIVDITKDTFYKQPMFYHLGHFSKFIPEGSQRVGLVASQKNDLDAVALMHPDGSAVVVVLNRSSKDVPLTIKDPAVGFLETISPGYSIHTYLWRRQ
In short: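 Wild-type enzyme at 0.2 nM final in 50mM citric acid/KH2PO4, 10mM sodium taurocholate, 0.01% tween-20, pH 5.9, with resorufin beta-D-glucopyranoside at 30 uM final. Compounds titrated, 20 min at RT, red fluorescence read; AC50 from titration.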
Potency means the concentration at half of the fitted maximal effect.

Potency, inactive:
NS(=O)(=O)c1ccc(CCNC(=O)CNC(=O)C2CCCCC2)cc1 > 76.9 µM, CCCCN1C(=O)c2ccc(C(=O)Nc3c(N)n(CCCC)c(=O)n(C)c3=O)cc2C1=O > 76.9 µM, Cc1oc(-c2ccc(F)cc2)cc1-c1nn2c(-c3ccco3)nnc2s1 > 76.9 µM, CC1CCc2sc3ncn4nc(C(=O)NCc5ccco5)nc4c3c2C1 (centres undefined) > 76.9 µM, COCCNC(=O)C1c2cc(OC)c(OC)cc2C(=O)N(C)C1c1cccnc1 (centres undefined) > 76.9 µM, CC1CCN(CCNC(=O)C2CCCN(S(=O)(=O)c3cccc4nonc34)C2)CC1 (centres undefined) > 76.9 µM, Cc1oc2cc3c(C(=O)OCCN(C)C)c(C)oc3cc2c1C(=O)OCCN(C)C > 76.9 µM, O=C(CSc1nc2ccccc2o1)Nc1ccccc1N1CCCCCC1 > 76.9 µM, C=CCNC(=O)NC(=O)COC(=O)COc1ccc(Br)cc1F > 76.9 µM, CCCN(CCC)CCCNS(=O)(=O)c1cc(Br)cc2c1N(C(C)=O)CC2 > 76.9 µM, CCOc1nc(C)ccc1-c1noc(C)n1 > 76.9 µM, O=C(COC(=O)c1ccco1)Nc1ccc(Br)cc1 > 76.9 µM, CCCC(=O)Nc1ccc(NC(=O)c2cccc(OC)c2)nc1 > 76.9 µM, CC(=O)c1cccc(NC(=O)Nc2c(C)nn(C)c2C)c1 > 76.9 µM, Cc1ccc(OCC(O)CN2CCN(CC(O)COC(C)C)CC2)c(C(C)(C)C)c1 (centres undefined) > 76.9 µM, CCc1ccc(-c2nc(CN3CCC(C(=O)N4CCN(c5ccccn5)CC4)CC3)c(C)o2)cc1 > 76.9 µM, COc1cc(NS(=O)(=O)c2cc(C)ccc2OC)c(OC)cc1Cl > 76.9 µM, CCCCn1c(CN2CCN(CCO)CC2)nc2ccccc21 > 76.9 µM, CCN(CC)S(=O)(=O)c1ccc2oc(C(=O)NCC3COc4ccccc4O3)c(C)c2c1 (centres undefined) > 76.9 µM, Cc1onc(-c2ccccc2)c1C(=O)NCC1CCCO1 (centres undefined) > 76.9 µM, CCOc1ccc2[nH]cc(C(=O)N3CCN(CC)CC3)c(=O)c2c1 > 76.9 µM, C/C(N)=C(/C#N)C(=O)CN1CCCCC1 > 76.9 µM, O=c1c2cc3c(cc2[nH]c(=S)n1CCN1CCOCC1)OCO3 > 76.9 µM, O=C(NCc1ccc2c(c1)OCO2)C1CCCN1C(=O)Nc1ccccc1 (centres undefined) > 76.9 µM, COc1ccc(Cl)cc1-c1n[nH]c(=S)o1 > 76.9 µM, CC(=O)c1c(C)n([O-])c2ccc(C)cc2[n+]1=O > 76.9 µM, COc1cccc(NC(=O)c2oc3ccccc3c2NC(=O)C2CC2)c1 > 76.9 µM, CC1=C(C(=O)Nc2ccccc2)C(c2ccc(N(C)C)cc2)NC(=O)N1 (centres undefined) > 76.9 µM, O=C(CSc1ncccc1-c1nc2ccccc2[nH]1)N1CCCCC1 > 76.9 µM, O=C1c2ccccc2C(=O)N1CCCc1nc2ccccc2c(=O)n1CCCn1ccnc1 > 76.9 µM, c1cncc(-c2nnc(-c3cccs3)o2)c1 > 76.9 µM, CCN1CCN(C(=O)c2cnn3c(C(F)F)cc(-c4ccc(C)cc4)nc23)CC1 > 76.9 µM, CN(C)C(=O)C1(c2ccccc2)CCN(S(=O)(=O)c2ccccc2)CC1 > 76.9 µM, CC(=O)N1C(=O)c2cccc3cccc(c23)C(=O)N1C(C)=O > 76.9 µM, O=C(CSc1nnc(-c2cccs2)n1-c1ccccc1)N1CCOCC1 > 76.9 µM, O=C(Nc1c(F)cc(F)cc1Br)c1cc2nc(C(F)F)cc(C(F)F)n2n1 > 76.9 µM, Cn1c(=O)c2c(ncn2CC(=O)Nc2nc(-c3ccccc3Cl)cs2)n(C)c1=O > 76.9 µM, COc1ccc(C(=O)Cn2nnc(-c3ccc(N4CCOCC4)cc3)n2)cc1OC > 76.9 µM, CS(=O)(=O)N(CC(=O)N1CCCC1)c1ccc(OCc2ccccc2)cc1 > 76.9 µM, c1ccc(-n2cnc3cc(NCc4ccccn4)ccc32)cc1 > 76.9 µM, Cc1cc(=O)[nH]c(SC/C=C/c2ccccc2)n1 > 76.9 µM, Cc1ccc(-n2c(-c3ccncc3)nnc2-c2cccs2)cc1 > 76.9 µM, Cc1cc(C)n(-c2nc3sc4c(c3c3nnc(SC(C)C)n23)CC(C)(C)OC4)n1 > 76.9 µM, COC(=O)C(C#N)C(c1cccnc1)c1c(C)[nH][nH]c1=O (centres undefined) > 76.9 µM, O=C(c1cccc(S(=O)(=O)N2CCOCC2)c1)N1CCCc2ccccc21 > 76.9 µM, Cc1noc(C)c1CSCC(=O)OCc1nc2ccccc2c(=O)n1CC#N > 76.9 µM, O=C(O)C1CC=CCC1C(=O)NC12CC3CC(CC(C3)C1)C2 (centres undefined) > 76.9 µM, Cc1nc2nc(CSc3nnc(C)s3)cc(=O)n2[nH]1 > 76.9 µM, COc1ccc(S(=O)(=O)NCCC(=O)NC(C)c2ccccc2)cc1 (centres undefined) > 76.9 µM, O=C(NCc1cccnc1)c1cc(S(=O)(=O)N2CCCCC2)ccc1Cl > 76.9 µM, O=C(NCc1ccco1)C(c1cccnc1)N(C(=O)Cn1nnc2ccccc21)c1ccc(F)cc1 (centres undefined) > 76.9 µM, CC1CCCCC1NC(=O)CN1CCC(O)(c2ccc(F)cc2)CC1 (centres undefined) > 76.9 µM, Cn1c(=O)c2c(nc(SCC(=O)OCc3ccccc3)n2C)n(C)c1=O > 76.9 µM, O=C1CN(C(=O)c2ccco2)C(c2ccc(F)cc2)c2cc(Cl)ccc2N1 (centres undefined) > 76.9 µM, CCCCNC(=O)c1cccc(C(=O)NCCCC)c1 > 76.9 µM, Cn1c(=O)c2c(nc(N3CCCCC3)n2CCSc2nc3ccccc3o2)n(C)c1=O > 76.9 µM, COc1cccc(NC(=O)c2cccc(OC)c2OC)c1 > 76.9 µM, Cc1noc(C)c1COC(=O)COc1cccc2c1OC(C)(C)C2 > 76.9 µM, CC(=O)c1c(C)[nH]c(C(=O)NCCc2ccccc2)c1C > 76.9 µM, Cc1cc2n(n1)SC(Nc1ccccc1)N2 (centres undefined) > 76.9 µM, O=C(COC(=O)CCS(=O)(=O)c1ccc(Cl)cc1)Nc1ncc(Cl)cc1Cl > 76.9 µM, COC(=O)N(C)CCCC1(C)C(=O)N(C)c2ccc(O)cc21 (centres undefined) > 76.9 µM, CC(=O)c1cc2c(cc1NC(=O)c1cnc(C)cn1)OCO2 > 76.9 µM, COc1ccc(C2N=C(N)N=C(N)N2c2ccccc2)cc1OC (centres undefined) > 76.9 µM, COc1ccc(NC(=O)C(c2ccccc2)N(C)C(=O)c2cnccn2)cc1 (centres undefined) > 76.9 µM, COCC(=O)Nc1sc2c(c1C(=O)OC)CCC(C)C2 (centres undefined) > 76.9 µM, COc1ccc(Cl)c(Cn2c(NCc3ccccn3)nc3c2c(=O)n(C)c(=O)n3C)c1 > 76.9 µM, COc1ccc(-n2c(C)cc(C(=O)COC(=O)Cn3cnc4ccccc43)c2C)cc1 > 76.9 µM, COc1ccc(S(=O)(=O)NC(CC(=O)NC2CCCC2)c2ccco2)cc1 (centres undefined) > 76.9 µM, CCOC(=O)C1CCCN(S(=O)(=O)c2ccc(OC)c3ccccc23)C1 (centres undefined) > 76.9 µM, COc1ccc(N(Cc2cc3ccc(C)cc3[nH]c2=O)C(=O)c2ccco2)cc1 > 76.9 µM, COc1ccc(Cn2c(CCC(=O)Nc3ccc(CC#N)cc3)nc3cccnc32)cc1 > 76.9 µM, COC(=O)C1CCN(C(=O)c2sc3nc(-c4ccc(F)cc4)cn3c2C)CC1, Cn1nc(C(=O)NCCN2CCOCC2)c2ccccc2c1=O > 76.9 µM, O=C(C1CCCN(S(=O)(=O)c2cccc3nsnc23)C1)N1CC=C(c2ccccc2)CC1 (centres undefined) > 76.9 µM, CCSc1nnc(-c2ccccc2N)c(=O)[nH]1 > 76.9 µM, COc1ccc(-c2cc(C(=O)N3CCN(Cc4ccccc4)CC3)no2)cc1OC > 76.9 µM, CC(C)(C)NC(=O)C(c1ccco1)N(C(=O)Cn1nnc(-c2ccc(F)cc2)n1)c1ccccc1 (centres undefined) > 76.9 µM, CCN(CC)CCOC(=O)c1c(C)oc2ccc(O)cc12 > 76.9 µM, CCN(CC)CCN1C(=O)C(=O)/C(=C(/O)c2cccc(OC)c2)C1c1ccccn1 (centres undefined) > 76.9 µM, COc1ccc(CNC(=O)Nc2cccs2)cc1OC > 76.9 µM, O=c1[nH]c(CN2CCN(CCO)CC2)nc2ccccc12 > 76.9 µM, O=C(NCc1ccccn1)c1cn(CCc2ccccc2)nn1 > 76.9 µM, COc1ccc(CN2CCN(C(=O)CC(C)C)CC2)c2ccccc12 > 76.9 µM, COCCOC(=O)C1=C(C)NC2=C(C(=O)CC(C)(C)C2)C1c1cccnc1 (centres undefined) > 76.9 µM, CCSc1nnc(NC(=O)c2nn(C(C)C)c(=O)c3ccccc23)s1 > 76.9 µM, CCC(O)c1cc2c(cc1NC(=O)c1cccs1)OCCO2 (centres undefined) > 76.9 µM, CCOC(=O)c1csc(NC(=O)CSc2nnnn2-c2ccc(OCC)cc2)n1 > 76.9 µM, CN(C)CCCn1c(N)c(C#N)c2nc(C#N)c(C#N)nc21 > 76.9 µM
